Assay results from PubChem BioAssay AID686979 (National Center for Advancing Translational Sciences (NCATS), 2013).
The whole screen tested about 420,000 compounds, of which about 50,000 (12%) were called active. The shares of active, inactive and inconclusive entries below differ from those in the screen. Calls follow the shape of the dose curve; as a rule, active = well fitted inhibition curve with a large enough effect; inconclusive = small, poorly fitted or top-dose-only effect; inactive = flat fitted curve, though single readings scatter. No potency is given beside an inconclusive call; the fits are too rough.

test: qHTS for Inhibitors of human tyrosyl-DNA phosphodiesterase 1 (TDP1): qHTS in cells in presence of CPT; details: chicken DT40 Tdp1-/-;hTDP1 cells + 20 nM CPT, ATP luminescence, 48 h; activity change, negative = growth inhibition: at 46.2 µM (top of the series); also: nearly all actives have a fitted effect of over 55% in size
Method in brief: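 Cell growth measured by CellTiter-Glo luminescence after a minimum 48 h, 37 C compound exposure with 20 nM CPT in Tdp1-knockout DT40 cells stably expressing hTDP1, seeded 400/well; qHTS titration format.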
% is scaled to controls: 0 for no effect and ±100 for the full control effect; potency is read from the fitted curve at half-maximal effect; tags tell the direction and shape of the fitted curve.

Structure (SMILES)	Potency	activity change, negative = growth inhibition
CC(C)(C)NC(=O)C(c1ccccn1)N(C(=O)c1csnn1)C1CCCC1 (configuration not stated)	inactive	
COC(=O)c1ccc(NC(=O)C2CCCN2S(=O)(=O)c2ccc(OC)cc2)cc1 (configuration not stated)		inconclusive: -30.2% [inhibitor]
COc1cc(Cl)ccc1OCc1cc(C(=O)N2CCCCC2c2cccnc2)no1 (configuration not stated)	active: 5.8 µM	
Cc1ccc(C)c(Cn2nnc3c(=O)[nH]c(C(=O)NCc4ccco4)nc32)c1	inconclusive [inhibitor, single point]	
CC(=O)N(C)c1ccc(NC(=O)Nc2cccc3ccccc23)cc1	inactive	
CCOC(=O)c1cnc2ccc(OCC)cc2c1N1CCN(C)CC1	inconclusive [inhibitor, single point]	
Cc1ccc(NC(=O)Cn2c(=O)n(CCC(=O)NCc3ccccc3Cl)c(=O)c3ccccc32)cc1	active: 16.4 µM	
COc1ccc(CCn2c(C)cc(C(=O)CSc3nnc(N)s3)c2C)cc1	inconclusive [inhibitor, single point]	
CCc1ccc(N2C(=O)CN(Cc3cc(OC)c(OC)c(OC)c3)C2=S)cc1	active: 16.4 µM	
CCN(CC)S(=O)(=O)c1cccc(C(=O)N2CCCCC2)c1	inactive	
NS(=O)(=O)c1ccc(N2CCN(CCOc3ccc(Cl)cc3)CC2)nc1	inconclusive [inhibitor, single point]	
COc1ccc(Cl)cc1NC(=O)CSc1cn(CC(=O)N2CCCCCC2)c2ccccc12	active: 13 µM	
CCCc1cc(=O)oc2cc(OC(C)C(=O)NCc3ccccn3)c(Cl)cc12 (configuration not stated)	inconclusive [inhibitor, single point]	
O=C(COC(=O)C1CC2CCCC(C1)C2=O)Nc1ccc(F)c(Cl)c1 (configuration not stated)	inconclusive [inhibitor, single point]	
CN1C(=O)C2(N=c3ccccc3=N2)c2ccccc21	inconclusive [inhibitor, partial curve]	
CC(C)OC(=O)C(C)Nc1ccc(F)c(Cl)c1 (configuration not stated)	inactive	
O=C(NCc1ccccn1)C1C2C=CC(C2)C1C(=O)Nc1ccc(F)cc1 (configuration not stated)	inactive	
O=C(COC(=O)c1ccc(-c2ccccc2)cc1)Nc1ccccc1-c1ccccc1	inconclusive [inhibitor, single point]	
CN(C)CCNc1cnn(-c2ccccc2)c(=O)c1Cl	inactive	
COc1ccccc1NC(=O)CSc1nc(-c2ccccc2F)nc2cc(=O)[nH]n12	inconclusive [inhibitor, single point]	
O=C(Nc1cccc(Cl)c1)ON=C1c2ccccc2-c2ccccc21	inactive	
CC(C)NC(=O)N1CCC2(CC1)CCN(S(=O)(=O)c1ccccc1)CC2	inactive	
COc1ccccc1NC1=NC(c2ccc(Cl)cc2)N=C(N)N1 (configuration not stated)	active: 5.17 µM	
Cc1cccc(C)c1OCCn1nnc2ccccc21	inconclusive [inhibitor, single point]	

Structure (SMILES)	Potency	activity change, negative = growth inhibition
CCN1CCc2nc3sc(C(=O)c4ccc(F)cc4)c(N)c3cc2C1	inconclusive [inhibitor, single point]	
NS(=O)(=O)c1ccc(-c2ccc(/C=C3\SC(=S)N(C4CCS(=O)(=O)C4)C3=O)o2)cc1 (configuration not stated)	inconclusive [inhibitor, single point]	
Cc1ccc(-n2c(=O)c3c(c4cc(C)ccc4n3C)n(CC(=O)NCc3ccccc3)c2=O)cc1	inconclusive [inhibitor, full curve, poor fit]	
CCN(CC)C(=O)CSc1nc2[nH]ncc2c(=O)[nH]1	inactive	
CC(C)(C)c1ccc(C(=O)N2CCC(c3nc4ccccc4o3)CC2)cc1	active: 20.6 µM	
O=C(CCC1N=C2c3ccccc3N=C(SCc3ccccc3F)N2C1=O)NCc1ccc(F)cc1 (configuration not stated)	inconclusive [inhibitor, single point]	
c1ccc(Nc2ncnc3ccc(-c4ccoc4)cc23)cc1	inconclusive [inhibitor, single point]	
CCOC(=O)c1c(N2C(=O)C3CC(C)=C(C)CC3C2=O)sc(C)c1C (configuration not stated)	inactive	
Cc1nc(-n2[nH]c3c(c2=O)CCCC3)[nH]c(=O)c1Cc1ccccc1	active: 2.91 µM	
Cc1ccc2occ(CC(=O)N(Cc3ccc(C(C)C)cc3)C3CCS(=O)(=O)C3)c2c1 (configuration not stated)	inconclusive [inhibitor, single point]	
COc1cc(/C=N/Nc2ccc(C(F)(F)F)cn2)ccc1O	inconclusive [inhibitor, single point]	
O=C(NC1(C(F)(F)F)C(=O)Nc2c1c(=O)[nH]c(=O)n2Cc1ccco1)C1CC1 (configuration not stated)	inactive	
COc1ccc(NC(=O)c2c(NCc3cccc(OC)c3)sc3c2CCCC3)cc1	inconclusive [inhibitor, single point]	
Cc1c(NC(=O)COC(=O)c2ccc(Br)o2)c(=O)n(-c2ccccc2)n1C	inactive	
CCCS(=O)(=O)N1CCCC(C(=O)NCCc2cccc(C)c2)C1 (configuration not stated)	inactive	
COc1cc(NC(=O)C2CCCN(S(=O)(=O)c3cccc4nsnc34)C2)cc(OC)c1 (configuration not stated)	inconclusive [inhibitor, single point]	
Cc1cc2nc(-c3ccc(F)cc3)c(CC3CCCCC3)n2c(C)c1Br	inconclusive [inhibitor, single point]	
O=C1[C@@H]2[C@@H]3C[C@@H]([C@H]4ON=C(c5ccc(Cl)cc5Cl)[C@@H]34)[C@@H]2C(=O)N1C1CCCCC1	inconclusive [inhibitor, single point]	
O=C(Cn1cc(S(=O)(=O)Cc2ccc([N+](=O)[O-])cc2)c2ccccc21)N1CCOCC1	inactive	
COc1ccc(-c2onc(C)c2C)cc1S(=O)(=O)NCC1CCN(Cc2cccc(F)c2)CC1	active: 20.6 µM	
CCc1ccc(S(=O)(=O)Nc2cc3c(cc2N2CCCCC2)n(C)c(=O)c(=O)n3C)cc1	inconclusive [inhibitor, single point]	
O=C(NCCC1CCCCN1S(=O)(=O)c1ccccc1)C(=O)NCc1ccccc1F (configuration not stated)	inconclusive [inhibitor, single point]	
CCCC1(CCC)NC(=O)N(CC(=O)Nc2ccc(Cl)c(S(=O)(=O)N3CCOCC3)c2)C1=O	inconclusive [inhibitor, single point]	
CC1CCCC(NC(=O)C2CCC(CNc3c(N4CCCCC4)c(=O)c3=O)CC2)C1C (configuration not stated)	inactive	

Structure (SMILES)	Potency	activity change, negative = growth inhibition
CCC(C)NCCOCCOc1ccc(Br)cc1 (configuration not stated)	inconclusive [inhibitor, partial curve]	
O=C(CSc1ccc2c(c1)OCCO2)Nc1ncc(Cl)cc1Cl	inconclusive [inhibitor, single point]	
CC(=O)N(/N=C/c1cccc(C)c1)c1nc(-c2ccc(Br)cc2)cs1	active: 20.6 µM	
CS(=O)(=O)N1CCC(Oc2ccccc2C(=O)NCCCc2cccnc2)CC1	inactive	
Cc1nc(N2CCN(c3ccccn3)CC2)c2c(C)c(C(=O)Nc3c(C)cc(Br)cc3C)sc2n1	inconclusive [inhibitor, partial curve, poor fit]	
COc1ccc(NC(=O)Cn2c(=O)ccc3cc(S(=O)(=O)N4CCCC4)ccc32)cc1Cl	active: 16.4 µM	
COc1cccc(CC2(CO)CCN(Cc3cnc(-c4cccc(C)c4)nc3)CC2)c1	inconclusive [inhibitor, single point]	
COc1ccc(C2NC(=S)NC3=C2CCc2cc(OC)ccc23)cc1 (configuration not stated)	inconclusive [inhibitor, single point]	
Clc1cccc(-n2ncc3c(NCCCn4ccnc4)ncnc32)c1	active: 20.6 µM	
Cc1cccc(N2CCN(C(=O)Cn3nc(Cc4cccnc4)c4ccccc4c3=O)CC2)c1C	active: 13 µM	
CCOC(=O)c1c(-c2ccc(C)o2)csc1NC(=O)CN1CCOCC1	active: 16.4 µM	
CN(CCCNC(=O)Cn1c(=O)c2cccn2c2ccccc21)Cc1ccccc1	inactive	
COc1ccc(S(=O)(=O)N(CC(=O)Nc2cccnc2)c2ccc(Cl)cc2)cc1	inactive	
CCOC(=O)c1c(S(=O)(=O)NCC(=O)Nc2cccc(C)c2C)c(C)n(C)c1C	inactive	
COc1ccc(CNC(=O)c2ccc(N3CCOCC3)c([N+](=O)[O-])c2)cc1	inconclusive [inhibitor, full curve]	
CSc1ccc(CSCC(=O)N2CCN(S(=O)(=O)c3ccc(C)cc3C)CC2)cc1	active: 25.9 µM	
CC1=C(C(=O)N(C(C)C)C(C)C)CC(CC(=O)NCc2cccs2)C(=O)N1Cc1ccccc1 (configuration not stated)	inconclusive [inhibitor, single point]	
O=C(OCn1nnc2ccccc2c1=O)c1ccc2ncsc2c1	inactive	
CCCCC1CN2CCc3c([nH]c4ccccc34)C2(C)C1 (configuration not stated)	inconclusive [inhibitor, partial curve]	
Cc1cccc(N2CCN(C(=S)NCc3ccco3)CC2)c1C	inactive	
CC(=O)Nc1ccc(NC(=O)C2Cc3c(-c4cccc(F)c4)ccnc3O2)cc1 (configuration not stated)	inactive	
O=C(c1cccc(Cl)c1)C1CCCN(Cc2ccc(N3CCNC3=O)cc2)C1 (configuration not stated)	inconclusive [inhibitor, single point]	
COc1ccc(C(CNC(=O)c2cc(S(=O)(=O)N3CCCC3)ccc2Cl)N2CCCC2)cc1 (configuration not stated)	inactive	
CC(C)C1C(C#N)=C(N)Oc2n[nH]c(-c3ccc4ccccc4c3)c21 (configuration not stated)	inconclusive [inhibitor, single point]	
